# Experimental data taken from ChEMBL document CHEMBL4888484, “Replenishing the malaria drug discovery pipeline: Screening and hit evaluation of the MMV Hit Generation Library 1 (HGL1) against asexual blood stage Plasmodium falciparum ,using a nano luciferase reporter read-out” (2022).
# The whole screen tested about 150,000 compounds, of which about 540 (0.36%) showed an effect of 50% or more. The list shows a part of the results.
# Test system: Plasmodium falciparum
# Assay: Primary screen in NF54 nanoGlo assay, in single point, at 2uM, 72h; a lower Z score goes with more inhibition
# Type: functional, Erythrocyte
# Conditions: timepoint 72 hour
SMILES,% Inhibition [%],Z score
O=C(Cn1cccc1-c1nc(-c2cccc(Cl)c2)no1)N1CCN(c2ccccc2F)CC1,11,-1.31
Clc1cccnc1OC1CCOCC1,-14,1.82
Cc1ccc(S(=O)(=O)n2nc(-c3cn(C)nc3C)c(Cl)c2-c2cn(C)nc2C)cc1,31,-3.52
O=C1NCCN(C(=O)C2Cc3ccccc3C2)[C@H]1CCO,-7,0.79
CN(C)[C@H]1CCCN(Cc2cccc3cc[nH]c23)C1,-8,1.6
CC(C)n1cc(NC(=O)NCCc2ccc(S(N)(=O)=O)cc2)nn1,-12,2.2
CCOC(=O)N1CCC2(O)CCCCC2[C@@H]1c1ccc(OC)cc1 (stereo partly drawn),-10,1.27
CN(Cc1ccns1)C(=O)N[C@H]1CCCC1(F)F,-7,1.42
CCN(CC)CCCNC(=O)c1cc2occc2c(Nc2ccccc2)n1,-5,0.55
O=c1[nH]n(C2CCOCC2)c2c1[C@@H](c1ccc(F)c(Cl)c1)CC(O)=N2,-7,0.97
COc1ccc(CC(=O)NCCc2csc(C)n2)cc1,-11,2.02
CCc1noc([C@H](C)N2CCc3ncnc(OC)c3C2)n1,-6,1.19
CN=C(NCc1cc2ccccc2o1)NC1CC1,9,-1.16
CCn1cc(CN(C)Cc2cnc3c(-c4ccccc4)cnn3c2)c(C)n1,-4,0.72
Cc1[nH]c(CN2C[C@@H]3CCC[C@H](C2)C(=O)N3)cc1C#N,-15,2.62
COc1cc2c3c(c1O)-c1c(cccc1OC)C[C@@H]3[N+](C)(C)CC2,-5,0.47
COc1cccc(CN2CCN(C(=O)N(C)C)[C@H]3CS(=O)(=O)C[C@H]32)c1,-25,2.35
CN(Cc1ncnn1C)c1ccc(C(=O)NC2CCCC2)nn1,-13,1.28
COc1cccc(-c2cn(CC(=O)Nc3ccccc3C)nc2N2CCOCC2)c1,-9,1.01
C[C@H](O)CNS(=O)(=O)Cc1ccccc1,-10,0.98
CN(C)C1CC(NC(=O)c2cccn2C)C1(C)C (stereo not drawn),-21,4.05
Cc1nc(-c2cccc(Cl)c2Cl)sc1-c1ccn[nH]1,30,-3.91
COc1ccccc1-c1nnc([C@H]2CCN(Cc3ncc[nH]3)C2)o1,32,-3.57
CC[C@H](NS(=O)(=O)N1CCOCC1)c1cccs1,-17,2.87
